From the RNAGym collection of RNA variant scans (doi:10.7554/elife.90254)
Read counts are not given, so values of variants with three or more changes are uncertain.

B1: LINE1-mini (parent)
chain: GGCAGAGCUCAACACAGCGUGGCAAAGUGGCUGUGGCUAGACUGCC

Variants of: B1
Assay: self-cleavage, relative activity (ratio to wild type); higher = more cleavage; in vitro, sequencing; the parent is a self-cleaving ribozyme

Variant	self-cleavage
G22U G27U G33A C37G	0.02
G22C A26C C46U	2.45
G21U G22A G36A	0.13
G22A U34C C42A	0.04
G21C G27C C31G	0.05
G22C A26C G27U G36U A41G	0.07
G22C G33A G40A	0.06
G21A C31A C45A	0.08
C23G A25U U32G U34G C45G	0.01
G22C G30C U34A	0.04
G22A G30A G33U C42A	0.05
G22C G36A C46U	0.09
G21A C23A G36U A39G	0
G21U C23U A24U U28C	0.83
C23A C42A G44A	0.97
G21A G22U G27A C37A A41G	0.02
G22U U32C U43A C45G C46A	0.01
U20G G33U C45A	0.05
G21C U28G U32G	0.29
C23G C31G G44A	0.03
G21U C31G C37U	0.06
G22C C37G C45A	0.04
G22U A25U G36A	0.17
G21U G22U U32A	0.08

Variant	self-cleavage
C23A A25U C37U U38A G44A C45G	0.04
G22U A25U U28C G36C	0.16
G22C C45A C46A	0.14
G21U C31A C37A	0.25
G21A G29A C37A C45A	0.1
U20G G22A A39G	0.12
G22U C23G A39G	0.1
G21C A25C U34A	0.18
G22U A24C C31A U32G	0.06
G21U G30C U43A	0.03
U20G G27U U32G	0.02
G22U U28G G35C	0.26
C23A A39G C46U	0.17
G22U U28C G36U C37U	0.03
G21A A24G G36A C42U	0.12
G22C C23U G44U	0.92
G21U U34G A39C G44C	0.02
C23A U28C U38C	1.24
G22A U32G U38A	0.1
C23A C31U C37U U43C	0.11
C23A G40A C42A	0.06
G22U G29U C31G	0.12
G21U A26U C37G C42A U43G	0.04
G21U A41C C42A	0.34

Variant	self-cleavage
G21U U32G C37A	0.03
G21U U34C U38G	0.05
G22C A25C C37G U38G	0.07
G21C G27C A39G	0.09
G21U U34C A39U	0.6
G21U U34C U38G U43C	0.01
G21A U34G G35A	0.05
G22U G27C G33C	0.05
G21U G29A G40U	0.11
G22U U34C C42U	0.07
G21C G22U G30U A39G	0.02
G22U G29C C42U	0.08
G22A A25U G27A U34A U43C C45A	0.04
G22A C23U C31U	0.91
C23G A26U A41C C42U C45U	0.03
G21A G22C U32A G44C	0.06
G22A G35C C42U C46G	0.17
U20G G30A U34G	0.06
C23A U28A C42U	0.08
G21U A41G C45A	0.04
C23A U28C C31U C37U G44C	0.02
G21U A25G G35U U38G	0.01
G21C U38A C42G U43G	0.01
G22C C37A C42U G44C	0.1

Variant	self-cleavage
G22C G27U G30A	1.12
G21A G22U G33A	0.38
U20G G33A C45A	0.01
C23A G29A C45A	0.55
C23G A24C C46G	0.25
G22A G30U C42A	0.06
C23G A26G C37U A41G	0.01
G22A G29C G33A C46G	0.81
G22C A26G G29C G44A C45U	0.03
G22U G33A C37G	0.03
U20G G22C G29A U34A A41U C42A	0.18
G21A G40U A41G C45U	0.02
G21U U43G C45G	0.21
G22A A26G G29A U34A G40A	0.02
G21A C42U G44A	0.18
G21C G30C G33U	0.25
G21A U28C C46A	0.15
C23A G35C A41C	0.06
G22C U28A G40U	0.06
G21U U28G A41U	0.28
G21U G30A G33A C37U	0.04
U20G G22U C23A U32A U43A	0.03
U20G G29U C31A G40A	0.03
G21C G30U U32G U34G	0.03

Variant	self-cleavage
U20G G27A U28G U43A C45G	0.01
G22C U43A C46G	0.02
G22A C31U U34A G40A	0.05
G22C C31A A41C G44C	0.1
C23A G29A U34C	0.15
G22A U38G A41U	0.01
C23A C42U C45G	0.09
G21A A24G C37G	0.03
G22U G27C U28C G35A C42A	0.02
G21A G22C U32A A41U C42U U43C C46A	0.05
G22C A25G G35U	0.11
C23G A26G G30U	0.6
C23G G29C U34C G36U G40C U43A G44U	0.01
G22C C23A A24U G44U	1.37
G21C U28C G33U	0.06
G22A A39G G40U G44C	0.07
U20G U32G G40A	0.03
G21U A26G G33U A39U	0.03
G22C A26C G29U	0.23
G21U U28C U32A G33U	0.06
G21U A24G U34G G35A G36A	0.25
G22C G29U C31A C45G	0.01
G21C G29C G44C	0.14
G21C G30U C31G A41G U43C	0.01

Variant	self-cleavage
G22C A26G G30U C45A	0.19
G21U G22U C23U	0.9
G21A U32A C46A	0.19
G21U G22U A39G	0.07
U20G G21C G22A	0.18
U20G G21C G22C	0.16
C23A G30C C31U	0.99
G21C G22A U32G U34A C42G	0.03
G21U A24U G40U	0.04
G21U C23A C37U	0.01
G21U G36A A39G	0.05
C23G A26C U28G G36U	0.13
G21A U28A U32G	0.02
U20G G29U G40U	0.05
G22A G27A U28C G29U	0.23
G21C U32C A41U	0.22
G21A A25C C45U	2.64
G22U A24C G27C G29U G44U C45A	0.13
G22C C23U G40A	0.19
G21C G35C U43C	0.05
G21U G33A A39C	0.07
G21A G27C G36U	0.01
G21C C31A G40U	0.15
G21U G30U C31A U32A	0.13

Variant	self-cleavage
G21U G27U C31G G35U U38A	0.17
U20G G33A G36U C45U	0.04
C23G C42U C46U	0.07
G21A G27C G33A	0.09
G21U U34A A39U C45U	0.2
G22U G27U U28C C42A U43A	0.25
G22A G33C C42A C46U	0.03
G22U A25G C45A C46A	0.58
G22C A25C G29A G33U U38A	0.04
G22C U28A U43G C45U	0.04
G21U U34A C46A	0.08
G21A G22U C46U	1.38
C23G C31A G33U	0.02
G21U A24U G44U	0.68
C23A U34G C37U	0
G21U A39U C42U	0.69
C23G G35A U38A C42A U43C	0.07
C23A G33C G36U	0.03
G21C U34C A39U	0.01
C23A A25C A41C G44A	0.06
G22A G27U C31U G40C	0.02
U20G G30A G40A	0.02
G22A A25C G33A	0.17
